Each structure is given as a SMILES string. In all, about 110,000 compounds were measured (“z-score”: median about -0.1, highest 2% from about 2 on). Some of the results follow. The source made the active and inactive calls.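 Rule for the calls: active = z-score in the third read window above 3 or below -3; inactive = the rest.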

This experiment addresses Metabotropic glutamate receptor 8 (Rattus norvegicus) (UniProt P70579). In words: rat mGluR8 modulators via GIRK flux, primary screen, cell-based, thallium flux, HTS (AID 488969). The conditions noted are these: HEK293 rat mGluR8, GIRK (G protein-gated inwardly rectifying potassium channel) thallium flux, FluoZin2; at 10 µM; stronger effect = higher value; submaximal glutamate (EC20) added with thallium.
Chain of UniProt P70579 (P70579 whole entry, looked up): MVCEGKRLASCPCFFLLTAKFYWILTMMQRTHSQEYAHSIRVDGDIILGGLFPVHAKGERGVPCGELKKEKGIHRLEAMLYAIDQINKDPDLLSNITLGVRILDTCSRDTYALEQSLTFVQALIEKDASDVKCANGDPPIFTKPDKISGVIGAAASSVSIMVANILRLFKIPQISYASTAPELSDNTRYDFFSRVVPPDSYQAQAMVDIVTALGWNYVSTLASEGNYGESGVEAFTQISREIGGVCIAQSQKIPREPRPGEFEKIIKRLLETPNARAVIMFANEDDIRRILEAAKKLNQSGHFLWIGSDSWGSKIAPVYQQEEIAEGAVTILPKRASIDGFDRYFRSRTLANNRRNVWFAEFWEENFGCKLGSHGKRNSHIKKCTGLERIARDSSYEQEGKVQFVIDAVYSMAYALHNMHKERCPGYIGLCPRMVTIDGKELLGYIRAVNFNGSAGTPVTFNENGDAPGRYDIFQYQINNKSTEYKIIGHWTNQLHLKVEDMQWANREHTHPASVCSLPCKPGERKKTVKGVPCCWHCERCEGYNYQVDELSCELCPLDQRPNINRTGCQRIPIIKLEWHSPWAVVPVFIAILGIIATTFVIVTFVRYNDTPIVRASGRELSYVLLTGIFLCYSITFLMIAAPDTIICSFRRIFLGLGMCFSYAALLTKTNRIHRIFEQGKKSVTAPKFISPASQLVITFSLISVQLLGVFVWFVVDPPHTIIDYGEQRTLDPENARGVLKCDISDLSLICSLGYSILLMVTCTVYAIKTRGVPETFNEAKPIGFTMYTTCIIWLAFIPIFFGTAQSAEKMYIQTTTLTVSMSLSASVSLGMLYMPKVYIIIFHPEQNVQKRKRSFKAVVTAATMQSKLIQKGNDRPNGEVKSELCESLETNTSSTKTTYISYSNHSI
The molecule `Cc1cc(/C=C(\C#N)C(=O)NCc2cccs2)c(C)n1-c1ccc([N+](=O)[O-])cc1` showed a z-score of 0.114.

`Clc1ccc2nc(SCc3nnc(-c4ccccc4)o3)[nH]c2c1` showed a z-score of -0.339. `CC1CN(c2nc(-c3ccccc3)nc3ccccc23)CC(C)O1` (centres undefined): the z-score is -0.673.

In the case of `CCOC(=O)c1c(NC(=S)NC(=O)c2ccc(Cn3cc(Cl)cn3)o2)sc2c1CCCCC2`, the z-score is 0.0384. For `CCN(CC)S(=O)(=O)c1ccc(OC)c(NC(=O)COc2ccc3c(C)cc(=O)oc3c2)c1`, the z-score was -0.114. The figure for `Cc1cccc(-n2c(C)nc3sccc3c2=O)c1` is 1.99; for `CCCCCn1c(CNC(=O)c2cccs2)nc2ccccc21` it is -0.237; for `CCn1c(O)c(/C=N/NC(=O)c2ccncc2)c(=O)n(CC)c1=S` it is 1.66. Next, `Cc1ccc(NC(=O)C2CCCN2S(=O)(=O)c2ccc(F)cc2)c(C)c1` (centres undefined): -0.334. With `COc1ccccc1C(=O)N1CCNC(=O)C1CC(=O)Nc1cccc(C)c1` (centres undefined), the z-score was -0.198. Next, `Cc1nnc(OC(C)C)c2nn(-c3ccccc3F)c(C)c12`: -0.589; `COC(=O)c1ccccc1NC(=O)CN(C)S(=O)(=O)c1ccc(OC)cc1`: 0.195. Next, `COc1cc(C=C(c2nc3ccccc3s2)c2nc3ccccc3s2)ccc1O`: -0.149; `CCn1c(COc2cc(C)cc(C)c2)nnc1SCC(=O)N1CCN(c2ccccc2)CC1`: -0.182; `CCc1ccc(C(=O)Nc2ccc(S(=O)(=O)Nc3nc(C)cc(C)n3)cc2)o1`: -0.39. On to `Cn1nc(-c2ccccc2)c(C(=O)Nc2ccc(C(F)(F)F)cc2)c1Cl`, for which the z-score is -0.393. As to `O=C(N/N=C/c1cc(Br)cs1)c1ccccc1[N+](=O)[O-]`, the z-score was -0.395.

In turn, `O=C1c2cccc3cccc(c23)C(=O)N1CCN1CCN(C(=S)Nc2ccc(F)cc2)CC1` had a z-score of -0.203. On to `Cc1ccc(NC(=O)C2CCC(=O)N2)cc1C` (centres undefined), for which the z-score was -0.504. As to `COc1ccccc1NC(=O)CSc1ccc2nnc(-c3cccnc3)n2n1`, the z-score is -0.277. In turn, `Cc1cc(C(=O)CSc2nc(N)cc(=O)[nH]2)c(C)n1CCc1ccc(F)cc1` came in with a z-score of -0.612.

Molecule `CC(C)(C)NC(=O)CSc1nc2scc(-c3ccccc3)c2c(=O)[nH]1` came in with a z-score of -0.345.

Molecule `CSc1nnc2c3ccccc3c3ccccc3c2n1` yielded a z-score of 0.0535.

`COc1ccccc1NC(=O)CCN1C(=O)C2CC=C(Cl)CC2C1=O` (centres undefined): the z-score stood at 0.334. `Cn1nnc(NCc2cc(Br)ccc2OCc2cccs2)n1` yielded a z-score of -1.17. Next, `CN(C)S(=O)(=O)c1cc(NC(=O)CN2CCNC(=O)C2)ccc1Cl`: -0.12. Next, `O=C(CN1CCN(S(=O)(=O)c2ccc(F)cc2)CC1)Nc1cc(C(F)(F)F)ccc1Cl`: -0.166; `CCCC(=O)n1nc(-c2ccc(OC)cc2)nc1N`: -0.082.

The molecule `CCn1c(SCC(=O)Nc2sc3c(c2C(N)=O)CCC(C)C3)nnc1-c1ccco1` (centres undefined) came in with a z-score of -0.0158.

Consider `Cc1cccc(NC(=O)c2cc3n(n2)C(C(F)(F)F)CC(C2CC2)N3)c1C` (centres undefined), for which the z-score was -0.161. On to `CN(C)CCNc1ncnc2c1sc1nc(N3CCOCC3)c3c(c12)CC(C)(C)SC3`, for which the z-score came to 0.0422.

As for `CC1(C)C(=O)OC(c2ccco2)C(C)(C)C1=O` (centres undefined), the z-score was 0.0457. The figure for `COc1cc(S(=O)(=O)Nc2cc(C)cc(C)c2)ccc1F` is -0.0939; for `COc1ccc(-n2c(=S)[nH]c3cc(C(=O)NCCCN4CCCC4=O)ccc3c2=O)cc1OC` it is -0.333.

Molecule `O=C1c2cnc3nc(SCc4ccccc4)nn3c2CC2c3ccccc3CCN12` (centres undefined) had a z-score of -0.307.

With `OC(CN1CCN(c2ccccc2)CC1)Cn1c2ccccc2c2ccccc21` (centres undefined), the z-score is -0.155. In turn, `CSC1=NCCN1C(=O)Cc1ccc(Cl)cc1` had a z-score of 0.392. With `Cc1cc(OCC(=O)Nc2ccncc2)ccc1Br`, the z-score came to 0.365.

In the case of `CCc1ccc(Nc2nnc(SCC(=O)NCCN3C(=O)CSC3=O)s2)cc1`, the z-score turned out to be 0.0282. Next, `Cc1ccc(-n2[nH]c(C)c(/C=N/NC(=O)c3cccc([N+](=O)[O-])c3)c2=O)cc1C`: 0.186. The molecule `COc1ccc(C(c2c(O)ccc3ccccc23)N2CCOCC2)c(OC)c1` (centres undefined) had a z-score of -0.27.

In turn, `CCOC(=O)N1CCN(C(=O)c2ccc3nc(N4CCCCC4)sc3c2)CC1` displayed a z-score of -0.424. Next, `CCOC(=O)N1CCN(C(=O)C2CCN(C(=O)c3cc(OC)cc(OC)c3)CC2)CC1`: -0.0988; `S=C(NCCc1ccccc1)NCc1ccccc1Cl`: 0.165. Molecule `O=C(CSc1nnc(-c2ccco2)n1-c1ccccc1)NCCc1ccccc1` displayed a z-score of -0.293. The figure for `CC(Oc1ccc(Cl)cc1Cl)c1nc(-c2ccc(NC(=O)c3cccnc3)cc2)no1` (centres undefined) is 0.0647; for `COc1cccc(CN2CC(O)=C(c3nc(-c4ccc(Cl)cc4)cs3)C2=N)c1` it is -0.0854; for `O=C(CN1C(=O)COc2ccccc21)N(Cc1cccnc1)Cc1ccccc1F` it is 0.362. The figure for `O=C(Nc1ccc(N2CCCCC2)cc1)c1cncc(Br)c1` is 0.104; for `COc1ccc(-c2noc(-c3cccc(OC)c3OC)n2)cc1OC` it is 0.387; for `CCOC(=O)c1cc(CC)sc1NC(=O)C1CC1` it is -1.22. With `Cc1ccc(-c2cc(C(=O)N3CCN(C(=O)c4ccco4)CC3)no2)cc1`, the z-score is -0.304. Next, `CCC1CCCCN1C(=O)Cn1c(=O)n(CCC(=O)NCc2ccco2)c(=O)c2sccc21` (centres undefined): -0.0213; `O=C(O)c1cccc(NC(=O)C2C3C=CC(C3)C2C(=O)OCC(F)(F)C(F)F)c1` (centres undefined): -0.359.

`CCCSC1=N/C(=C\c2ccsc2)C(=O)S1` had a z-score of 0.449. As for `Cc1cccc(C)c1NC(=O)/C(=C/c1ccco1)c1ccccc1`, the z-score is -0.268. The figure for `NC(=O)c1ccsc1NC(=O)C1CCCN1S(=O)(=O)c1ccc(Cl)cc1` (centres undefined) is 0.494. The figure for `CC1/C(=N/O)C(CN(C)C)C2CC1C2(C)C` (centres undefined) is -0.153; for `CCN(CC)c1ccc(/C=C2\NC(=O)NC2=O)cc1` it is -0.171.

Consider `COc1ccc(C(=O)NC2CCN(CC(=O)Nc3cccc(C)c3)CC2)cc1OC`, for which the z-score was -0.223. The figure for `O=C(NNC(=O)c1ccccc1[N+](=O)[O-])c1cnccn1` is 0.111; for `COC(=O)c1c(NC(=O)CSc2nnnn2-c2ccccc2)sc2c1CCC(C)C2` (centres undefined) it is -0.121. As for `Cn1c(CNc2cccc(Cl)c2)nnc1SCC(=O)OC1CCCCC1`, the z-score was -0.274. Regarding `S=c1[nH]nc(-c2cc3c(s2)-c2ccccc2CC3)o1`, the z-score is active: 16.3. The figure for `O=C(NN=C1CCN(Cc2ccccc2)CC1)c1cccc(S(=O)(=O)Nc2ccccc2Cl)c1` is 0.0315; for `O=C(/C=C/c1ccccc1Cl)NC(=S)Nc1ccccc1C(=O)NC1CCCCC1` it is -0.0868; for `N#Cc1cn(-c2ccccc2)nc1-c1cc2ccccc2oc1=O` it is -0.0371. `COC(=O)c1c(CCl)noc1C(=O)NC(C)C` yielded a z-score of -0.223. `O=C(CCCN1C(=O)c2ccccc2C1=O)N1CCCCC1` gave a z-score of 0.836. Regarding `Cc1ccc(S(=O)(=O)N2CCN(c3ccc(C(F)(F)F)cc3[N+](=O)[O-])CC2)cc1`, the z-score was -0.0811. Next, `Cc1noc(C)c1S(=O)(=O)N1CCC(C(=O)N2CCN(c3ccc(Cl)cc3)CC2)CC1`: -0.437; `O=C(CSc1nnnn1C1CCCC1)Nc1ccc(F)cc1`: 0.179.

As to `O=C(CCCCCn1c(=S)[nH]c2ccccc2c1=O)NCc1ccc2c(c1)OCO2`, the z-score is 0.476. On to `O=C(CN1C(=O)c2ccccc2C1=O)NCC1COc2ccccc2O1` (centres undefined), for which the z-score was 0.443. The figure for `CCNCCNc1ccc(Cl)cc1[N+](=O)[O-]` is -0.222. The molecule `Cc1ccccc1C(=O)NC1CCN(C(=O)N2CCOCC2)CC1` yielded a z-score of -1.1. Next, `Cc1ccc(C(=O)OCC(=O)Nc2ccc3c(c2)OCO3)o1`: 0.0228; `CCC1CCCCN1CCCNC(=O)C1CCC(=O)N1Cc1ccc(C)cc1` (centres undefined): 0.925; `N#Cc1c(-c2cccs2)cc(C2CC2)nc1SCC(N)=O`: -0.0249. The figure for `CC1(C)CC(=O)C=C(NCc2cccnc2)C1` is -0.443; for `O=C(Oc1ccc(C(=S)N2CCOCC2)cc1Br)c1ccccc1F` it is 0.567.

With `O=[N+]([O-])c1ccc(O)c(/C=N/Nc2ccc(Cl)nn2)c1`, the z-score is -0.395.

With `Nc1c(C(=O)Nc2ccccc2F)sc2nc(-c3ccco3)ccc12`, the z-score is -0.167.

As to `COCCNC(=O)c1ccccc1NC(=O)c1cc(OC)cc(OC)c1`, the z-score is -0.244.

Turning to `COc1ccc(S(=O)(=O)N2CCOCC2)cc1C(=O)Nc1cc(C)on1`, the z-score was found to be 0.32.

`CC12CCC(C(=O)NC3CCCC3)(CC1=O)C2(C)C` (centres undefined) came in with a z-score of 0.791. Next, `CCCc1nnc(NC(=O)CCC(=O)N2CCN(c3ccccn3)CC2)s1`: -0.269; `CCOC(=O)CN1C(=O)S/C(=C/c2cc(C)n(-c3ccccn3)c2C)C1=O`: -0.221. `COC(=O)c1cc(Br)c(=O)n(-c2ccc(OC)cc2)c1` gave a z-score of -0.609. The figure for `NNC(=O)CN1C(c2ccccc2Br)=Nc2ccc(Br)cc2C1c1ccccc1` (centres undefined) is -0.154. Next, `COc1ccc(/C=N/NC(=O)C2c3ccccc3Oc3ccccc32)c(OC)c1`: -0.0101; `CCOC(=O)c1ccc(Nc2nc(-c3cccnc3)nc3ccccc23)cc1`: 0.0187.

In the case of `O=C(Nc1cc(C(=O)N2CCCC2)ccc1N1CCCC1)c1ccccc1`, the z-score is -1.7. The figure for `CCC(Cc1ccccc1)NC(=O)C1CCC(CNc2c(N3CCCC3)c(=O)c2=O)CC1` (centres undefined) is 0.312.

Take `COc1ccccc1NC(=O)c1sc2ncn(Cc3cccc(C)c3)c(=O)c2c1C`: the z-score was -0.0638. Take `c1ccc(COc2cccc(CNCc3cccs3)c2)cc1`: the z-score worked out at 0.54. The figure for `O=C(CCC(=O)c1cccs1)OCc1nc2ccccc2s1` is 0.372; for `CCSc1nnc(-c2cnn(-c3ccccc3)c2-n2cccc2)n1C` it is -0.0808. The figure for `COc1ccc(Br)cc1CN(C)CC(=O)Nc1c(Cl)ccc(C)c1Cl` is -0.294. `COc1ccc(S(=O)(=O)Nc2cccc(SC)c2)cc1OC` registered a z-score of -0.0387. The figure for `CCN(CC)CCOC(=O)CCc1cccc2ccccc12` is 0.479; for `Cc1ncoc1C(=O)Nc1cccc(Cl)c1` it is -0.307. Next, `COC(=O)Cn1c(=NC(=O)c2nc3ccccc3s2)sc2cc(S(N)(=O)=O)ccc21`: -0.309. On to `Cc1ccsc1C1Nc2ccccc2C(=O)N1O` (centres undefined), for which the z-score is -0.218.

As to `CCN(CCCNC(=O)C1CCC(=O)N1C(C)C)c1cccc(C)c1` (centres undefined), the z-score is -0.386. The figure for `CCC(=O)Nc1ccc(NC(=S)NC(=O)/C=C/c2ccccc2)cc1` is -0.0712. As to `c1ccc(C(c2c[nH]c3ccccc23)c2c[nH]c3ccccc23)nc1`, the z-score is 0.105.

In the case of `CCSc1nc2c([nH]c3ccccc32)c(=O)n1C`, the z-score is -0.536. In turn, `CO/N=C/c1ccc(N2CCN(C(=O)c3ccc(Cl)cc3Cl)CC2)c([N+](=O)[O-])c1` registered a z-score of -0.166.

Source of the values: PubChem BioAssay AID488969 (Vanderbilt High Throughput Screening Facility, 2010).
